# Assay results reported in PMC4336329 (PLoS ONE, 2015).
# Out of some 310,000 compounds screened, about 2,200 (0.71%) showed an effect of 50% or more. The effect is printed as a negative number. The list shows a part of the results.
# Target: human ether-à-go-go-related gene (hERG) potassium channel (human, UniProt Q12809)
# Assay: primary screen, population patch clamp on CHO cells stably expressing hERG
# human ether-à-go-go-related gene (hERG) potassium channel, sequence (Q12809 whole entry, looked up): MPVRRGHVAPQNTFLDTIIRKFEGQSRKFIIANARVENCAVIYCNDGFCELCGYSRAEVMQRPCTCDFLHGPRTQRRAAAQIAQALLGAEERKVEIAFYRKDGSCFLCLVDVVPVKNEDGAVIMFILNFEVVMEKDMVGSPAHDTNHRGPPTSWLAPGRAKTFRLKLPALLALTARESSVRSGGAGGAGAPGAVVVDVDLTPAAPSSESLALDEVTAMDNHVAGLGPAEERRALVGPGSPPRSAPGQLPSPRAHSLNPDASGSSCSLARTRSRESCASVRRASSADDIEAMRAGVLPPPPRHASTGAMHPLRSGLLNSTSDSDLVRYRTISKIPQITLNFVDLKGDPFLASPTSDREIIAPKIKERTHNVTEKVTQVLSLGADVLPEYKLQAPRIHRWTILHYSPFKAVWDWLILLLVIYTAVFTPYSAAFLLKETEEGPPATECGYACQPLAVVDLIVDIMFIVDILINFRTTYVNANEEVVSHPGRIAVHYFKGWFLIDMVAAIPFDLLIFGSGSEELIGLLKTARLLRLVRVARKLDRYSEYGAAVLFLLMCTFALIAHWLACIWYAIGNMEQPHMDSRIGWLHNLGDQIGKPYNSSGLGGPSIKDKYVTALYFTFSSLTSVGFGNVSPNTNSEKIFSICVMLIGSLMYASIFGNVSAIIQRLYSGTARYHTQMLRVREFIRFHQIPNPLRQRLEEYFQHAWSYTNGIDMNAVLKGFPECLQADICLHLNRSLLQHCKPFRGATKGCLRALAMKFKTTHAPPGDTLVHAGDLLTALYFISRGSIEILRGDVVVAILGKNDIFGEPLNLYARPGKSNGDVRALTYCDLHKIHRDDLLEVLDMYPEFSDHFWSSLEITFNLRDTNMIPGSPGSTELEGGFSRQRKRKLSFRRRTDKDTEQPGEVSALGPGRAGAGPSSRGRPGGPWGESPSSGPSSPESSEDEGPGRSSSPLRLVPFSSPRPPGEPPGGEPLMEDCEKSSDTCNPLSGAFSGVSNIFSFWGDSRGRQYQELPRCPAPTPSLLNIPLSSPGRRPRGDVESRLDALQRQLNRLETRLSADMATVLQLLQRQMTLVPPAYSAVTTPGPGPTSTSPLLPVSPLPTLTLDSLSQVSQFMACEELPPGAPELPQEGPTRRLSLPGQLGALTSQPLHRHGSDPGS
row,SMILES,"hERG current change (%, negative = inhibition) at 1uM [%]"
1,COc1cccc(/C=N/n2cnnc2)c1OCc1ccccc1,-5.96
2,O=C1c2cc(F)ccc2-n2c1nc1ccccc1c2=O,8.96
3,Fc1ccc(/C=N/NC(=S)Nc2cccnc2)cc1,13.4
4,CCC(=O)c1ccc2c(c1)N(CCCN(C)C)c1ccccc1S2.Cl,-1
5,CC(C)Cc1nc2oc3c(NCC(C)O)ncnc3c2c2c1CCCC2 (stereo not shown),4.92
6,Cc1cc(=O)[nH]c(N/N=C/c2ccc(Br)s2)n1,-0.312
7,COc1cc(/C=N/Nc2ccc(Cl)c(C(=O)O)c2)ccc1OC(=O)c1ccco1,12
8,O=C(CC1C(=O)NCCN1CC1CCCCC1)NCc1ccccc1Cl (stereo not shown),9.89
9,Cc1ccc(-c2nnn(CC(=O)Nc3cccc4cccnc34)n2)o1,-5.28
10,COc1ccc(OCCN2CCN(C3CC(=O)N(CCC(C)C)C3=O)CC2)cc1 (stereo not shown),-22.5
11,CCC1c2ccc(C)n2CCN1C(=O)Nc1ccccc1OC (stereo not shown),10.6
12,C/C=C/c1ccc(OCCOc2cccc3cccnc23)c(OC)c1,22.9
13,O=c1ccc(-c2ccc([N+](=O)[O-])cc2)nn1-c1ccccc1,5.04
14,CCN1CCC2(CCN(C(=O)c3cc(COc4cc(C)ccc4C)on3)C2)C1 (stereo not shown),5.57
15,CCOc1ccc(-c2nn3c(-c4ccccc4)nnc3s2)cc1,-3.81
16,C[C@@]12C(=O)N(c3ccc(F)cc3)C(=O)N1[C@@H]1c3ccccc3OC[C@@H]1[C@H]2c1ccccc1,10.1
17,CN(Cc1nc2ccccc2n1C)c1ccccc1,12.3
18,COc1ccc(NC(=O)[C@@H]2[C@@H]3C(=O)N(C4CCCCC4)C(=O)[C@@H]3C3c4ccccc4C=CN32)cc1 (stereo partly shown),11.4
19,CC(C)NC(=O)c1ccc(N(Cc2ccccc2)S(C)(=O)=O)cc1,15.3
20,CCCCn1c(N)c(N(Cc2ccccc2OC)C(=O)CC2OC(=O)c3ccccc32)c(=O)[nH]c1=O (stereo not shown),11.6
21,CC(C)CN(C(=O)COC(=O)/C=C/c1cccs1)c1c(N)n(Cc2ccccc2)c(=O)[nH]c1=O,10.1
22,CC(=O)Nc1ccc(NC(=O)C(C)OC(=O)c2ccccc2Sc2ccccc2C#N)cc1 (stereo not shown),-7.16

row,SMILES,"hERG current change (%, negative = inhibition) at 1uM [%]"
1,Cc1ccc(C)c(S(=O)(=O)N2CCN(C(=O)C3CCN(c4ncnc5sc(C)c(C)c45)CC3)CC2)c1,-12
2,CCC1C(=O)c2ccccc2N(C)C1=O (stereo not shown),10.9
3,COc1ccc(N(C)C(=O)c2oc(=O)c3ccccc3c2-c2ccccc2)c(OC)c1,7.8
4,COc1ccc(-c2nc(N)nc(C(F)(F)F)c2-c2cscn2)c(O)c1,8.15
5,C=CCOC(Cn1ccnc1)c1ccc(Cl)cc1Cl (stereo not shown),-6.04
6,OC1(c2ccccc2F)CC2CCC(C1)N2CCN1CCOCC1 (stereo not shown),13.3
7,O=C(CN(c1ccccc1)S(=O)(=O)c1ccccc1[N+](=O)[O-])Nc1cccnc1,3.34
8,Cc1cccc2sc(NC(=O)[C@H](C)N3C(=O)C4CC=CCC4C3=O)nc12 (stereo partly shown),0.286
9,CCOC(=O)CCn1nnc(N)n1,18.5
10,CCn1c(SCC(=O)NC2CCCC2)nnc1-c1ccncc1,13.6
11,CN(Cc1ccccc1)C(=O)CCC1CCN(C(=O)CCC(F)(F)F)CC1,15.6
12,O=C(Nc1nc2c(s1)CCCC2)c1ccc2ncsc2c1,10.6
13,Cc1ccc2nc(SC(C(=O)Nc3ccc(F)cc3)c3ccccc3)[nH]c2c1 (stereo not shown),11
14,O=C(CSc1n[nH]c(=O)n1-c1ccc2c(c1)OCCO2)Nc1ccccc1,4.53
15,O=C(CS(=O)(=O)c1ccc(Cl)cc1)Nc1nnc(-c2cccs2)o1,23.9
16,Cc1c(Cl)ccc2c1NC(=O)[C@]21N[C@@H](Cc2ccccc2)[C@H]2C(=O)N(c3ccc(F)cc3)C(=O)[C@H]21,13.3
17,O=C1/C(=C/c2cccs2)SC(=S)N1N1CCOCC1,11.2
18,CCOC(=O)CSc1nc2c(c(=O)n1-c1ccc(OCC)cc1)SCC2,16.5
19,O=C(Nc1ccc(-c2cscn2)cc1)C1CCCN(Cc2ccccc2)C1 (stereo not shown),7.14
20,Cc1noc(C)c1COc1ccc(C(=O)OCC(=O)Nc2ccc(S(N)(=O)=O)cc2)cc1,6.58
21,CCn1nc(C)c(/C=C2\CCCC3=C2OC(N)=C(C#N)C3c2c(C)nn(CC)c2C)c1C (stereo not shown),21.9
